Test results reported in publication PMC7614228, “Structural maturation of SYCP1-mediated meiotic chromosome synapsis by SYCE3” (Nature structural & molecular biology, 2023).
Positions count from the first letter of the chain named. Names may count otherwise. Results are given in words; binding and its absence hold for the method and conditions named. For part of these data: Binding seen in cells or lysates may run through a third protein. Some entries that bind do so weakly or less than the wild type. For part of these data: Where a sequence is shown, tags or fusion partners need not be part of it. One block for each binder: values may come before it.

Tests used:
SYCP1 (1-811) (human) = target: T1, SYCP1 (1-811) (human) (UniProt Q15431); assay: two-hybrid; Matchmaker Gold; pGBKT7 fusions in Y187 mated with pGADT7 fusions in Y2H Gold; growth on SD/-Trp/-Leu/-Ade/-His with X-α-gal, 5 days at 30°C
T1 sequence: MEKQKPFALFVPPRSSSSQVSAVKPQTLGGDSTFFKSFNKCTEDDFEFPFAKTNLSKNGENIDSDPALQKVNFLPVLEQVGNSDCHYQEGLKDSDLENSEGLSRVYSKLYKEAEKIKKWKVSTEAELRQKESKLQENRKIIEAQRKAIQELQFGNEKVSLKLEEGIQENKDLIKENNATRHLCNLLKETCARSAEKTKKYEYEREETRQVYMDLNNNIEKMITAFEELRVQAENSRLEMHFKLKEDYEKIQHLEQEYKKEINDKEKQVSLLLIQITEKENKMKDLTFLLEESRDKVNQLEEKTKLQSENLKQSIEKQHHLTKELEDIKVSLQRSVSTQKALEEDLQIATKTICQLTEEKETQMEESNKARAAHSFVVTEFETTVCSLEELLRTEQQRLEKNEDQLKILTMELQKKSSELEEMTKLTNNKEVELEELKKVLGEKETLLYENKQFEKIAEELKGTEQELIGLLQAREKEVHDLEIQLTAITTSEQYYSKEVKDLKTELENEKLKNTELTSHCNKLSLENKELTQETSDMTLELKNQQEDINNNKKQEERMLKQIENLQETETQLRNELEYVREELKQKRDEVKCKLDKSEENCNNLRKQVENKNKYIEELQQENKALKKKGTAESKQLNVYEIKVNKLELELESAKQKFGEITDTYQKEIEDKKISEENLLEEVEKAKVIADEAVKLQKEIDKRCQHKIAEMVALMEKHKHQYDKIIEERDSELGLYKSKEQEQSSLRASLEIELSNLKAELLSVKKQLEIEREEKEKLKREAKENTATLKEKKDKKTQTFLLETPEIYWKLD

[1] = target: T2, MBP-SYCP1αNcore (amino-acids 206-362) (human, UniProt Q15431 206-362); assay: pull-down; amylose pull-down of SYCE3 after recombinant co-expression with MBP-SYCP1 constructs or free MBP
T2 construct: SYCP1 αNcore (tetrameric core), amino-acids 206-362; source: E. coli BL21(DE3), co-expressed with SYCE3 constructs; in lysate (amylose pull-down) or co-purified (amylose, anion exchange, SEC); not shown: MBP, N-terminal, kept
T2 sequence (looked up): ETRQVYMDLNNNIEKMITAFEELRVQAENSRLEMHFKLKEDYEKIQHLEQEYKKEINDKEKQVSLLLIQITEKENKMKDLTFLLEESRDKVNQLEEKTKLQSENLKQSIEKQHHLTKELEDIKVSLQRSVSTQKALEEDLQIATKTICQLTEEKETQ

[2] = target: T3, SYCP1αN-SYCE3 2:1 and 4:2 complexes (human) (UniProt Q15431+A1L190); assay: SEC; pre-formed SYCP1-SYCE3 complex (92-93 μM) with a 10-fold molar excess of free SYCE3 or SYCE3 W41E Y44E, 1 h at 30°C; Superdex 200 Increase, 20 mM Tris pH 8.0, 150 mM KCl, 2 mM DTT; both purified
T3 sequence 1: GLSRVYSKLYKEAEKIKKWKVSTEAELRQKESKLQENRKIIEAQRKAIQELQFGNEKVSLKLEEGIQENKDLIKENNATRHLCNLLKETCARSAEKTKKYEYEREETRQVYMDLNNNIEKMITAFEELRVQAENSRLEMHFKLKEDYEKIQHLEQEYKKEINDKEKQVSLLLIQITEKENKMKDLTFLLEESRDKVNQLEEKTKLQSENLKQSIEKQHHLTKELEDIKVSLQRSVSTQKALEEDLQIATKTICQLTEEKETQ
T3 sequence 2: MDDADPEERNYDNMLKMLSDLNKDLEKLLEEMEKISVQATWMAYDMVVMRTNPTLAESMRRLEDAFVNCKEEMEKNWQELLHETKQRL

[3] = target: T4, SYCP1αNcore-SYCE3 2:1 complex (human) (UniProt Q15431+A1L190); assay: as above
T4 sequence 1: T2 sequence (looked up)
T4 sequence 2: T3 sequence 2

[4] = target: T4, SYCP1αNcore-SYCE3 2:1 complex (human); assay: condition: 920 μM SYCE3 W41E Y44E with 92 μM complex; SEC; pre-formed SYCP1-SYCE3 complex (92-93 μM) with a 10-fold molar excess of free SYCE3 or SYCE3 W41E Y44E, 1 h at 30°C; Superdex 200 Increase, 20 mM Tris pH 8.0, 150 mM KCl, 2 mM DTT; both purified
[5] = target: T3, SYCP1αN-SYCE3 2:1 and 4:2 complexes (human); assay: condition: 930 μM SYCE3 W41E Y44E with 93 μM complex; SEC; pre-formed SYCP1-SYCE3 complex (92-93 μM) with a 10-fold molar excess of free SYCE3 or SYCE3 W41E Y44E, 1 h at 30°C; Superdex 200 Increase, 20 mM Tris pH 8.0, 150 mM KCl, 2 mM DTT; both purified

binding (SYCP1 (1-811) (human)): binds
B1: SYCE3 (1-88) (protein, UniProt A1L190 1-88)
chain: T3 sequence 2

binding [1]: binds
B2: His-SYCE3 (full-length, amino-acids 1-88) (natural protein, human, UniProt A1L190 1-88, looked up)
chain: T3 sequence 2
notes: SYCE3, full-length = amino-acids 1-88; source: E. coli BL21(DE3), co-expressed with MBP fusions; in lysate (amylose pull-down) or co-purified; not shown: His, N-terminal, kept

binding [2]: binds
binding [3]: binds
B3: SYCE3 (natural protein, human, UniProt A1L190 1-88, looked up)
chain: T3 sequence 2
notes: SYCE3 without a stated truncation; Dimer alone (SEC-MALS); one chain in the 2:1 complex with SYCP1; also called SYCE3 wild-type; free SYCE3; source: E. coli BL21(DE3), purified (Ni-NTA or amylose, TEV, anion exchange, SEC), alone or co-purified with SYCP1 constructs; not shown: His or His-MBP, N-terminal, cleaved

binding [4]: no binding
binding [5]: no binding
B4: SYCE3 W41E Y44E (natural protein, human, UniProt A1L190 1-88, looked up)
chain: T3 sequence 2 with W41E, Y44E
notes: SYCE3 with W41E Y44E; also called SYCE3 WY; WY mutant; source: E. coli BL21(DE3), purified, alone or co-purified with SYCP1 constructs; not shown: His or His-MBP, N-terminal, cleaved
